In PMC12376573 one finds binding data, which are given here for three substances.

Amino acid sequences for entries named in this document (tags omitted). A change or cut given only in a name is not applied to a line headed by its entry. Residues count along the entry.
UniProt Q14145: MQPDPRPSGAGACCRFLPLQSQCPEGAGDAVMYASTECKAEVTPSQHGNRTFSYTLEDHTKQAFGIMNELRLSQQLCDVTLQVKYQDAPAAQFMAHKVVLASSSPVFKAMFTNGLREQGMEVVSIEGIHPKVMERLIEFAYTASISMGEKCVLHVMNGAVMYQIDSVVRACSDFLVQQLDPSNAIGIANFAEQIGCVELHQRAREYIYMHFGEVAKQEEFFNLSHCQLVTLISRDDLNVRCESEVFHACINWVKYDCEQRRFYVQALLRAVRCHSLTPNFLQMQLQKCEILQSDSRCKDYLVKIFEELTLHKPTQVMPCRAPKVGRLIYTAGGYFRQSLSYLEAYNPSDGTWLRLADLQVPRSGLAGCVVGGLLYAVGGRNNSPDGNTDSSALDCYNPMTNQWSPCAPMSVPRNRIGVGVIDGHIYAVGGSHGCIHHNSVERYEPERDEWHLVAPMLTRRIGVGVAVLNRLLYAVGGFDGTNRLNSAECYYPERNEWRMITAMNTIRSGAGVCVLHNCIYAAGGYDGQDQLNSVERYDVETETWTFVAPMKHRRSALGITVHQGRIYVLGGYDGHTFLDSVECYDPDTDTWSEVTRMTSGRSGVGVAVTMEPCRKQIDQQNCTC
His‐KEAP1 truncation, amino acids 1–609: residues 1-609 of Q14145
His‐KEAP1 truncation, amino acids 1–321: residues 1-321 of Q14145
His‐KEAP1 truncation, amino acids 1–179: residues 1-179 of Q14145
His‐KEAP1 truncation, amino acids 1–66: residues 1-66 of Q14145
His‐KEAP1 truncation, amino acids 322–624: residues 322-624 of Q14145
UniProt Q99755: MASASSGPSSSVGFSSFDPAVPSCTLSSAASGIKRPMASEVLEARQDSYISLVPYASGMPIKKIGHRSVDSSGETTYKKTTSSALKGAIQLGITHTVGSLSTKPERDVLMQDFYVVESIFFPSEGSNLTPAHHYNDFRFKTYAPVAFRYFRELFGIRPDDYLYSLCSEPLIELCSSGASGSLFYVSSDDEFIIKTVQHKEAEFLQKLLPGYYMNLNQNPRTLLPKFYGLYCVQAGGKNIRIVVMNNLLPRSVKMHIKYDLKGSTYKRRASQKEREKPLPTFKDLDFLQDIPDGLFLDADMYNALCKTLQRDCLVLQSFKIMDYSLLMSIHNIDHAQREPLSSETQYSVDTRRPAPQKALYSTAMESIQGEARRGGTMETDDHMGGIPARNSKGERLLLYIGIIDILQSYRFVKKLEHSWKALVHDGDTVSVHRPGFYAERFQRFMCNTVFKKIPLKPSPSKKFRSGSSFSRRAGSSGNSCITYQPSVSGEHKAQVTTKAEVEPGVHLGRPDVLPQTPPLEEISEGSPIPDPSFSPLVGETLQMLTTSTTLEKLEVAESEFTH

These are yes or no findings as the source states them, for the method shown. Binding seen in cells or lysates may run through a third protein. Some entries that bind do so weakly or less than the wild type. For part of these data: Sequences can lack the tags named with a protein.

The target in assay [1] is His‐KEAP1 truncation, amino acids 322–624 (UniProt Q14145). The assay can be described thus: co-IP; HEK293T cells co‐transfected with tagged plasmids; lysate, antibodies overnight at 4 °C, Protein A/G magnetic beads.
Assay [2] concerns the target His‐KEAP1 truncation, amino acids 1–179 (UniProt Q14145). The description is as above.
Assay [3] has as its target His‐KEAP1 truncation, amino acids 1–321 (UniProt Q14145). The description is as above.
Assay [4] deals with His‐KEAP1 truncation, amino acids 1–66 (UniProt Q14145). Described as above.
Assay [5] has as its target His‐KEAP1 (wild type, full length) (UniProt Q14145). The assay is described as above.
For assay [6], the target named is His‐KEAP1 truncation, amino acids 1–609 (UniProt Q14145). Described as above.
Another assay concerns the target T1, Myc‐NRF2 (UniProt Q16236).
T1 sequence: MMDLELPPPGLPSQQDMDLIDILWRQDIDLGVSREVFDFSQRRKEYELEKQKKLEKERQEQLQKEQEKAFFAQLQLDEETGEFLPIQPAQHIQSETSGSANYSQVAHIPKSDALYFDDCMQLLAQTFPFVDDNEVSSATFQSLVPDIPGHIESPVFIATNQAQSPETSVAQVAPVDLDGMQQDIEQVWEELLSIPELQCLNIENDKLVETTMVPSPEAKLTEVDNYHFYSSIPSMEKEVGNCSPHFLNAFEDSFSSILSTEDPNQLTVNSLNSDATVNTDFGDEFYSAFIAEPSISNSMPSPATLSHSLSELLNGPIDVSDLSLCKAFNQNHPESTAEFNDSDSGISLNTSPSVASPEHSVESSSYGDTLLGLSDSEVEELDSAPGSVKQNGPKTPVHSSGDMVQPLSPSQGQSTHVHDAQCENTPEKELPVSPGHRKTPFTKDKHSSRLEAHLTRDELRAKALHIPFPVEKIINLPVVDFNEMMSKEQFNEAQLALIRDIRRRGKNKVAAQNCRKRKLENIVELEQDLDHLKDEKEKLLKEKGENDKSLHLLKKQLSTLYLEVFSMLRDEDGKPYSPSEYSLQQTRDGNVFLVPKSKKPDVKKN
Described as above.

The target in assay [7] is Kelch‐like ECH‐associated protein 1 (KEAP1), endogenous (human (endogenous in PLC/PRF/5)) (UniProt Q14145). The assay can be described thus: co-IP; endogenous proteins in PLC/PRF/5 cell lysate; IgG as control; Protein A/G magnetic beads, overnight at 4 °C.

With “Flag‐PIP5K1A (full‐length Flag‐tagged PIP5K1A) (from UniProt Q99755 1-562)”, the binding entry in assay [1] is “binds”; in assay [2] it was “no binding”; in assay [3], “no binding”; in assay [4], “no binding”; in assay [5], “binds”; in assay [6], “binds”. Moreover, the binding entry with Myc‐NRF2 is “no binding”.
Take “Flag‐PIP5K1A truncation, amino acids 81–449 (phosphatidylinositol‐phosphate kinase domain, PIPK domain) (from UniProt Q99755 81-449) (domain or fragment)”: the binding entry in assay [5] is “binds”.
In the case of “phosphatidylinositol 4‐phosphate 5‐kinase 1 alpha (PIP5K1A), endogenous (from UniProt Q99755 1-562)”, the binding result in assay [7] is given as “binds”.
